# Experimental data as given in PubChem BioAssay (Tox21).
# Several values for one entry are separate records, joined by “and”; a condition that tells them apart may be missing. Equal values may be shown once. Inconclusive means that the source gave no clear call. Such entries were picked first, then a sample of the others. For some assays here: A potency beside an inconclusive call is a rough fit, not a confirmed value. Activity calls are given as the source filed them. Unless noted, calls follow the shape of the dose curve; as a rule, active = well fitted curve in the direction sought with a large enough effect in the repeat runs; inconclusive = weak or mixed curves; inactive = no such curve, though single readings can be large; an effect the other way counts as inactive or inconclusive.
# Legend:
# [1] = molecular target: Estrogen receptor beta (Homo sapiens) (UniProt Q92731); test: qHTS assay to identify small molecule agonists of the estrogen receptor beta (ER-beta) signaling pathway (AID 1259377; active = well fitted activation curve with a large enough effect in the signal ratio in the repeat runs, not every such curve was filed as active; inconclusive = weak or mixed curves, or effect the other way; the % refers to the signal ratio; also: potency is read from the fitted curve at half-maximal effect; as to activation: % is scaled to controls: 0 for no effect and ±100 for the full control effect); settings: ER-beta-UAS-bla HEK293T, beta-lactamase FRET ratio, 16 h; activation: at 92.4 µM (top of the series) unless noted
# Chain of UniProt Q92731 (Q92731 whole entry, looked up): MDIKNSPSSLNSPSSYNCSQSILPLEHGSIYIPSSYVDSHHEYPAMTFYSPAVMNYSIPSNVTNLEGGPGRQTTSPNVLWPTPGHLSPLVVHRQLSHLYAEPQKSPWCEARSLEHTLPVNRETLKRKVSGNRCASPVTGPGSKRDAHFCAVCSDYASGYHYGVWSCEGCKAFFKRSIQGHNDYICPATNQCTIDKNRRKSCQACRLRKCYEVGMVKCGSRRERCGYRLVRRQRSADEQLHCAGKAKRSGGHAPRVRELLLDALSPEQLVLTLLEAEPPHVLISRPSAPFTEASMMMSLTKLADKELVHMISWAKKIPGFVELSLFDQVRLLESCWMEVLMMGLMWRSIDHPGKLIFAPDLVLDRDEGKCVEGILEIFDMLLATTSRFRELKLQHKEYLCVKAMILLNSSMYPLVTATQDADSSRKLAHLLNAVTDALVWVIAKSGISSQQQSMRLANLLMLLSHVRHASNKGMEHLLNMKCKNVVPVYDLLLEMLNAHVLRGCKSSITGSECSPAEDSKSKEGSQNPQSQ
# How it was run: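 ER-beta-UAS-bla HEK293T (GripTite) cells carrying a UAS-driven beta-lactamase reporter, in medium with 2% charcoal-stripped FBS, were exposed to compounds for 16 hr at 37C; LiveBLAzer B/G FRET substrate was then added and fluorescence read after 2 hours at room temperature.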
# [2] = molecular target: Estrogen receptor beta (Homo sapiens) (UniProt Q92731); test: qHTS assay to identify small molecule antagonists of the estrogen receptor beta (ER-beta) signaling pathway (AID 1259378; active = well fitted inhibition curve with a large enough effect in the signal ratio in the repeat runs, not every such curve was filed as active; inconclusive = weak or mixed curves, or effect the other way; inactive = no such curve, though single readings can be large or run the other way; the % refers to the signal ratio; also: potency is read from the fitted curve at half-maximal effect; as to activity, negative = inhibition: % is scaled to controls: 0 for no effect and ±100 for the full control effect); settings: ER-beta-UAS-bla HEK293T, beta-lactamase FRET ratio, 16 h; activity, negative = inhibition: at 92.4 µM (top of the series) unless noted
# How it was run: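 Antagonist mode: compounds added to beta-lactamase reporter HEK293T ER-beta-UAS cells stimulated with E2 (1nM final), 16 hr at 37C. LiveBLAzer B/G FRET substrate, 2 hours room temperature, fluorescence read-out.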
# [3] = qHTS assay to identify small molecule agonists of the progesterone receptor (PR) signaling pathway - cell viability counter screen (AID 1346799; calls by dose curve; also: nearly all actives have a fitted effect of over 45% in size; also: potency is read from the fitted curve at half-maximal effect)
# How it was run: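 PR-UAS-bla HEK293T cells, 3,000 per well in medium with 2% charcoal-stripped FBS, were preincubated 6 hr at 37C, then exposed to compounds for 16 hr; viability was read as CellTiter-Glo luminescence after 30 min at room temperature.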
# [4] = qHTS assay to identify small molecule agonists of the estrogen receptor beta (ER-beta) signaling pathway - cell viability counter screen (AID 1259380); also: nearly all actives have a fitted effect of over 30% in size; also: potency is read from the fitted curve at half-maximal effect
# How it was run: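 Cells used were ER-beta-UAS-bla HEK293T in medium with 2% charcoal-stripped FBS. They were treated for 16 hr at 37C. Viability came from CellTiter-Glo luminescence.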
# [5] = molecular target: Thyrotropin receptor (Homo sapiens) (UniProt P16473); test: qHTS assay to identify small molecule antagonists of the thyroid stimulating hormone receptor (TSHR) signaling pathway (AID 1259385; calls by dose curve; also: nearly all actives have a fitted effect of over 20% in size; also: potency is read from the fitted curve at half-maximal effect); settings: TSHR-HEK293 cAMP HTRF, TSH-stimulated antagonist mode; activity change, negative = inhibition: at 92.4 µM (top of the series) unless noted
# Chain of UniProt P16473 (P16473 whole entry, looked up): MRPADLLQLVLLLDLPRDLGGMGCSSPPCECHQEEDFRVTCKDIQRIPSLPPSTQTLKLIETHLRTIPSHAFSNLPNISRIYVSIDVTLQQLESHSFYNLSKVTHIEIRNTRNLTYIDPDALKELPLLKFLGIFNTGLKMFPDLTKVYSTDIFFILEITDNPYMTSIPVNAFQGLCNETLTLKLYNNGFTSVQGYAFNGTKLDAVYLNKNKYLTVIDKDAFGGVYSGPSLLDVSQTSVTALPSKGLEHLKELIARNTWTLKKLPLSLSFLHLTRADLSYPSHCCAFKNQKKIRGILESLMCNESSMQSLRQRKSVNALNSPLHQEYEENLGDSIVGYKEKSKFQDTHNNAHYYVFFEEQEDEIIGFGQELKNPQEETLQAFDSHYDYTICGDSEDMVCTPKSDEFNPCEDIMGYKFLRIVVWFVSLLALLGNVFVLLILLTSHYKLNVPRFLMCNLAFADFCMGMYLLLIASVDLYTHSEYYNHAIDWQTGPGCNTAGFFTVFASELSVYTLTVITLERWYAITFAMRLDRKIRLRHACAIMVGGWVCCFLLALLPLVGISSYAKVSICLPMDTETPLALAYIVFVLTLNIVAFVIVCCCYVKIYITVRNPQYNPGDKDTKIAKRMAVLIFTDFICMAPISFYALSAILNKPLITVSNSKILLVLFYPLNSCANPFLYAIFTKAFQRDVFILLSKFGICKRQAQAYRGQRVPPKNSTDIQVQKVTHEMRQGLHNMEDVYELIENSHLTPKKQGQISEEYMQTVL
# How it was run: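 Antagonist mode: compound-treated TSHR-expressing HEK293 cells were stimulated with 1.5 ng/mL TSH (final) in presence of Ro20-1724 for 30 min at RT. HTRF cAMP detection after 1 h; each compound tested at 15 concentrations, triplicate.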
# [6] = qHTS assay to identify small molecule agonists of the estrogen receptor alpha (ER-alpha) signaling pathway in the presence of an antagonist - cell viability counter screen (AID 1259386);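 also: cells exposed to compounds for 22 h at 37 °C before the viability read; nearly all actives have a fitted effect of over 30% in size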; also: potency is read from the fitted curve at half-maximal effect
# How it was run: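 ICI-182,780 at 10.0nM final accompanies the compound titration (15 concentrations, 22hr, 37C) on VM7Luc4E2 cells. The CellTiter-Fluor fluorescence readout runs in the same wells as the luciferase assay.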
# [7] = molecular target: Progesterone receptor (Homo sapiens) (UniProt P06401); test: qHTS assay to identify small molecule antagonists of the progesterone receptor (PR) signaling pathway (AID 1346795; active = well fitted inhibition curve with a large enough effect in the signal ratio in the repeat runs, not every such curve was filed as active; inconclusive = weak or mixed curves; the % refers to the signal ratio; also: potency is read from the fitted curve at half-maximal effect; as to activity change, negative = inhibition: % is scaled to controls: 0 for no effect and ±100 for the full control effect); settings: PR-UAS-bla HEK293T, beta-lactamase FRET ratio, 16 h; activity change, negative = inhibition: at 92.4 µM (top of the series) unless noted
# Chain of UniProt P06401 (P06401 whole entry, looked up): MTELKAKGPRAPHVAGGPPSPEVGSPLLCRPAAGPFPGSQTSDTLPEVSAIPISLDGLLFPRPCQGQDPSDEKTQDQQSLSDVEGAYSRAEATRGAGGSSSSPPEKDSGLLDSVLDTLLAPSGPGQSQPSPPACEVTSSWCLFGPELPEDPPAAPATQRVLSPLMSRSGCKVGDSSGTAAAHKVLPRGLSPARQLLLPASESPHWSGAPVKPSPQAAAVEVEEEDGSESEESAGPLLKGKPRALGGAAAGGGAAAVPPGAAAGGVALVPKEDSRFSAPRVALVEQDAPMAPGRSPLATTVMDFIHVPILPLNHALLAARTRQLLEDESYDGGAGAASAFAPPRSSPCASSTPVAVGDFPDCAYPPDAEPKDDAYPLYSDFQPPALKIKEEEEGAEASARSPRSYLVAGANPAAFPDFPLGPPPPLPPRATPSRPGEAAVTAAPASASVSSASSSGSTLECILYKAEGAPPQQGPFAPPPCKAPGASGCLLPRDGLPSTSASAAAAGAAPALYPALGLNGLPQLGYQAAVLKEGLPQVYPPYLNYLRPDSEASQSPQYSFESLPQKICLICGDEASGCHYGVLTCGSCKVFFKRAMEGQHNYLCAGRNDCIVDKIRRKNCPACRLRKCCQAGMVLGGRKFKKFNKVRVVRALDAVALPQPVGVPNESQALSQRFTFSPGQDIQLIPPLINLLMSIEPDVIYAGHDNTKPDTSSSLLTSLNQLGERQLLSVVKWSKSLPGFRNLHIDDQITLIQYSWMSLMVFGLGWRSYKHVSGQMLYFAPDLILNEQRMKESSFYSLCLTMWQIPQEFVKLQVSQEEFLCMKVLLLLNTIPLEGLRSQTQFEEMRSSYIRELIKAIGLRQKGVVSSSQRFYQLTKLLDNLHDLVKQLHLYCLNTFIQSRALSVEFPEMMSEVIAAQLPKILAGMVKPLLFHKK
# How it was run: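 PR-UAS-bla HEK293T cells carrying a UAS-driven beta-lactamase reporter were plated in medium with 2% charcoal-stripped FBS and rested 6 hr at 37C. Compounds were added with 1 nM R5020 (final) for 16 hr, then FRET substrate loaded 2 hr at room temperature.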
# [8] = molecular target: Progesterone receptor (Homo sapiens) (UniProt P06401); test: qHTS assay to identify small molecule agonists of the progesterone receptor (PR) signaling pathway (AID 1346784; calls by dose curve; also: nearly all actives have a fitted effect of over 30% in size; also: potency is read from the fitted curve at half-maximal effect; as to activation: % is scaled to controls: 0 for no effect and ±100 for the full control effect); settings: PR-UAS-bla HEK293T, beta-lactamase FRET ratio, 16 h; activation: at 92.4 µM (top of the series) unless noted
# How it was run: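 PR-UAS-bla HEK 293T cells carrying a UAS-driven beta-lactamase reporter were seeded in medium with 2% charcoal-stripped FBS, preincubated 6 hr at 37C, then exposed to compounds in DMSO for 16 hr; agonism was read by LiveBLAzer B/G FRET fluorescence.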
# [9] = qHTS assay to identify small molecule antagonists of the progesterone receptor (PR) signaling pathway - cell viability counter screen (AID 1346798); also: potency is read from the fitted curve at half-maximal effect; nearly all actives have a fitted effect of over 50% in size
# How it was run: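 PR-UAS-bla HEK293T cells in medium with 2% charcoal-stripped FBS were treated with compounds plus R5020 for 16 hr at 37C. Cell viability was then read by CellTiter-Glo luminescence after 30 min at room temperature in the same wells.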
# [10] = qHTS assay to identify small molecule antagonists of the estrogen receptor beta (ER-beta) signaling pathway - cell viability counter screen (AID 1259382); also: potency is read from the fitted curve at half-maximal effect; nearly all actives have a fitted effect of over 55% in size
# How it was run: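 Agonist-stimulated (1nM E2) ER-beta-UAS-bla HEK293T cells are incubated with library compounds for 16 hr at 37C. Cell viability is then assessed in the reporter-assay wells by adding CellTiter-Glo and reading luminescence after 30 min.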
# [11] = qHTS assay to identify small molecule agonists of the androgen receptor (AR) signaling pathway in the presence of an antagonist - cell viability counter screen (AID 1259379); also: nearly all actives have a fitted effect of over 25% in size; also: potency is read from the fitted curve at half-maximal effect
# How it was run: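 A CellTiter-Fluor read-out measured viability of MDA-kb2 reporter cells (MMTV promoter with AR and GR response elements). Treatment: nilutamide 3.0uM final with compounds at 15 concentrations, 16 hr, 37C, 0% CO2.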
# [12] = qHTS assay to identify small molecule antagonists of the TGF-beta/Smad signaling pathway - cell viability counter screen (AID 1346824); also: % is scaled to controls: 0 for no effect and ±100 for the full control effect; nearly all actives have a fitted effect of over 50% in size
# How it was run: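 Cytotoxicity counter-screen run in the same wells as the beta-lactamase Smad reporter read: CellTiter-Glo luminescence after 30 min at room temperature. HEK 293T SBE-bla cells had 5 hr compound exposure at 37 C with TGF-beta1 (0.25 ng/mL stock).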
# Tags tell the direction and shape of the fitted curve or compound fluorescence and quenching.
compound,measurement,setting,value
CCCCCCCCCC(C)C=O (stereo unspecified),Potency,[1],"inconclusive: 61.1 µM [rising, partial curve, poor fit]"
same,Potency,[2],"inconclusive: 61.1 µM [rising, partial curve]"
same,Potency,[3],active: 43.3 µM
O=C(CCC1CCN(Cc2ccccc2)CC1)c1ccc2c(c1)NCCCC2,Potency,[1],inactive
same,Potency,[2],inactive
same,Potency,[4],"inconclusive: 0.473 µM [cytotoxic, full curve]"
same,Potency,[5],"inconclusive: 33.5 µM [falling, single point]"
same,Potency,[6],"inconclusive: 26.6 µM [cytotoxic, partial curve]"
same,Potency,[7],inactive
same,Potency,[3],"inconclusive: 29.8 µM [rising, single point]"
CC(C)(C)C(=O)C(Oc1ccc(Cl)cc1)n1ccnc1 (stereo unspecified),Potency,[1],inactive
same,Potency,[2],"inconclusive: 21.1 µM [inhibitor, partial curve]"
same,Potency,[7],active: 23.7 µM
same,Potency,[3],"inconclusive: 4.73 µM [cytotoxic, partial curve]"
Cc1cn([C@@H]2O[C@H](CO)[C@@H](O)[C@@H]2F)c(=O)[nH]c1=O,Potency,[1],inactive
same,Potency,[4],inactive
same,Potency,[8],inactive
same,Potency,[7],inactive
same,Potency,[3],inactive
Cc1ccccc1C(=O)Nc1ccc(C(=O)N2CCCC(N(C)C)c3ccccc32)cc1 (stereo unspecified),Potency,[1],inactive
same,Potency,[4],"inconclusive: 26.6 µM [cytotoxic, single point]"
same,"activity change, negative = inhibition",[5],inconclusive: -20.2% [at 42.5 µM]
same,Potency,[6],inactive
same,Potency,[3],inactive
CSc1ccc(O)cc1C,Potency,[1],"inconclusive: 48.6 µM [fluorescent, partial curve]"
same,Potency,[2],active: 54.5 µM
same,Potency,[4],active: 61.1 µM
same,Potency,[7],inconclusive: 30.6 µM
same,Potency,[9],active: 61.1 µM
Cc1cc2nc(N)sc2cc1C,Potency,[1],"inconclusive: 9.78 µM [fluorescent, full curve]"
same,"activity, negative = inhibition",[2],inconclusive: -29.3%
same,Potency,[10],inconclusive: 49 µM [cytotoxic]
same,"activity change, negative = inhibition",[7],inconclusive: -38.5%
O=C1Nc2ccc([N+](=O)[O-])cc2C1=O,Potency,[1],inactive
same,Potency,[11],inconclusive: 68.5 µM [cytotoxic]
same,Potency,[4],"inconclusive: 68.5 µM [cytotoxic, partial curve, poor fit]"
same,Potency,[6],"inconclusive: 68.5 µM [cytotoxic, single point]"
Cc1c(N)cccc1[N+](=O)[O-],activation,[1],inconclusive: 7.32%
same,Potency,[2],inactive
same,"activity change, negative = inhibition",[7],inconclusive: -28.6%
same,Potency,[3],inconclusive: 62.1 µM [cytotoxic]
CCCCCOC(=O)c1ccc(O)cc1,activation,[1],inconclusive: 0.482%
same,Potency,[2],active: 24.6 µM
same,Potency,[6],"inconclusive: 55.1 µM [cytotoxic, partial curve]"
same,Potency,[8],inconclusive: 39 µM [cytotoxic]
same,Potency,[7],active: 27.6 µM
same,Potency,[9],"inconclusive: 27.6 µM [rising, single point]"
same,Potency,[3],"inconclusive: 61.9 µM [rising, partial curve]"
COc1cc2c(cc1OC)-c1cc(=Nc3c(C)cc(C)cc3C)n(C)c(=O)n1CC2,activation,[1],inconclusive: -3.78% [at 42.5 µM]
same,Potency,[2],"inconclusive: 10.6 µM [inhibitor, full curve]"
same,Potency,[7],active: 26.6 µM
same,Potency,[9],"inconclusive: 33.5 µM [cytotoxic, single point]"
same,Potency,[3],"inconclusive: 13.3 µM [rising, single point]"
O=c1[nH]nnc2ccccc12,Potency,[1],inactive
same,Potency,[2],inactive
same,Potency,[7],"inconclusive: 86.3 µM [rising, partial curve, poor fit]"
CCCCCCCCNC,Potency,[1],inactive
same,Potency,[2],inactive
same,Potency,[5],inactive
same,Potency,[7],inactive
Oc1ccc(Nc2ccccc2)cc1,Potency,[1],"inconclusive: 27.3 µM [fluorescent, full curve]"
same,"activity, negative = inhibition",[2],inconclusive: -65.5%
same,Potency,[4],"inconclusive: 15.4 µM [cytotoxic, partial curve]"
same,"activity change, negative = inhibition",[5],inconclusive: 2.81%
same,Potency,[7],active: 27.3 µM
same,Potency,[3],"inconclusive: 61.1 µM [rising, single point]"
same,Potency,[12],inactive
C#C[C@]1(O)CC[C@H]2[C@@H]3CCC4=CC(=O)CC[C@@H]4[C@H]3CC[C@@]21C,Potency,[1],active: 1.37 µM and active: 4.22 µM
same,Potency,[11],inactive
same,Potency,[4],"inconclusive: 33.5 µM [cytotoxic, single point]"
same,Potency,[10],"inconclusive: 61.1 µM [cytotoxic, partial curve, poor fit]"
same,Potency,[9],"inconclusive: 6.11 µM [rising, full curve]"
CCCCCCCCCCCCCCC1CO1 (stereo unspecified),Potency,[1],inactive
same,Potency,[4],inactive
O=C(O)c1c(O)c(-c2ccccc2)nc2ccccc12,Potency,[1],"inconclusive: 29.8 µM [rising, partial curve]"
same,Potency,[2],"inconclusive: 18.8 µM [inhibitor, partial curve]"
same,Potency,[4],"inconclusive: 21.1 µM [cytotoxic, partial curve]"
same,Potency,[7],"inconclusive: 26.6 µM [falling, partial curve]"
same,Potency,[9],"inconclusive: 2.98 µM [cytotoxic, single point]"
O=C1c2ccccc2C(=O)C1c1ccc2cc(S(=O)(=O)O)cc(S(=O)(=O)O)c2n1,Potency,[1],inactive
same,Potency,[11],active: 29.5 µM
same,Potency,[4],"inconclusive: 83.2 µM [cytotoxic, single point]"
same,Potency,[8],"inconclusive: 74.1 µM [rising, single point]"
same,Potency,[7],"inconclusive: 66.1 µM [rising, single point]"
same,Potency,[9],active: 20.9 µM
same,Potency,[3],active: 18.6 µM
